Results reported in the supplement of paper PMC11417369.
± gives the standard deviation of the averaged measurements. Some of the results follow.

Tested on: PfAP2-I AP2 domain 3 (GST-tagged)
Assay: gcPBM binding intensity (ln(normalized median fluorescence intensity)); higher = stronger DNA binding
In short: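 DNA-binding domains from P. falciparum, fused to GST and produced in E. coli, were put on an Agilent 4 × 180k double-stranded probe array for 1 h in 1× PBS holding 1% milk, 0.2 mg/ml BSA, 0.5% salmon testes DNA and 0.03% Triton X-100. Probes were primer-extended, 36 bp long and drawn from intergenic genomic regions, with negative controls included. After Alexa488 anti-GST antibody detection and a 488 nm scan, binding intensity was set as the highest Masliner-normalised natural-log median intensity across replicate spots of either probe orientation.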

“CATGTATACTATAATACACACTATAAAATATACACC [CACACA_site7121]” and “TAAAAAATTATAAAATGTACATAAAAAAAAAAAAAA [XGTACX_site3376]” are within error of each other in “gcPBM binding intensity (ln)” value: 8.18 ± 0.45 for the first, 8.12 ± 0.45 for the second.

“AAAGCACGCAAGAATACACACAAATATTATAAAAAA [CACACA_site6206]” and “ATCCCAGTAATATATAGTACATAACTATAAGAGAAT [XGTACX_site6909]” are within error of each other in “gcPBM binding intensity (ln)” value: 8.07 ± 0.69 for the first, 7.77 ± 0.57 for the second.

“AGGAAAACAAAAGATGCATGCTAATTTTCCTCGCGT [TGCATGCA_site627]” and “CTGAAGAAACTACAACGTACAAAATATGTATATATT [XGTACX_site3779]” are within error of each other in “gcPBM binding intensity (ln)” value: 7.42 ± 0.95 for the first, 7.75 ± 0.66 for the second.

“AAAATTAATAAATGAGAAAAAAGGATGAATAATGAG [CACACA_negctrl_site1614]” and “AGAAAAAAAATGTATACACACAAATATAAAGAAGGA [CACACA_site3806]” are within error of each other in “gcPBM binding intensity (ln)” value: 8.2 ± 0.57 for the first, 8.07 ± 0.67 for the second.

Compared with “TTTATTAATTAAACCATACACACATAATTTTTTTAT [CACACA_site842]”, “AAACGTGCGTATATGTGTACGCATATATATATATAT [XGTACX_site5252]” is higher in “gcPBM binding intensity (ln)” value: 7.77 ± 0.45 for the first, 10.3 ± 0.34 for the second.

“TATGATGAGATAACAAAAGTTGTACTTTTTTTTTTT [CACACA_negctrl_site1172]” and “CATATATACTCATACACACACACACCGACACAGACA [CACACA_site5026]” are within error of each other in “gcPBM binding intensity (ln)” value: 7.86 ± 0.2 for the first, 8.12 ± 0.29 for the second.

“ATGATATGGATAAATACACACAATATAATAATGTCT [CACACA_site1433]” and “ATATTTTTTAGGGTCACACATACTTATTATATAAAT [CACACA_site4926]” are within error of each other in “gcPBM binding intensity (ln)” value: 7.79 ± 0.69 for the first, 8.14 ± 0.58 for the second.

“AATATTTAACACCTTATACACACTTTCTTCCTTTTT [CACACA_site785]” and “AAAATGCATTTGATGTGTACGCATTATAAAGAACAA [XGTACX_site4203]” are within error of each other in “gcPBM binding intensity (ln)” value: 7.96 ± 0.86 for the first, 8.41 ± 0.45 for the second.

Going from “CACAAACAAAGACACACACACACACGCACAAAAATG [CACACA_site7193]” to “CAAATAGCTAGCTGTGCACACAAACATATTTTCCAA [CACACA_site879]”, the “gcPBM binding intensity (ln)” value rises from 8.36 ± 0.49 to 9.66 ± 0.23.

“ATGGAAATAAAAAAAAAAAAAAAAAAAAATATATAT [GTGCAC_negctrl_site67]” and “TAGCCCACATTTAATGGTACAGTGAGTATATATATG [XGTACX_site8044]” are within error of each other in “gcPBM binding intensity (ln)” value: 8.04 ± 0.87 for the first, 7.81 ± 0.41 for the second.

“TAATATATTTATAGAGCATGCAACGTAATATTATTA [TGCATGCA_site863]” and “TACATAAAATACCATGCATGCTAGTAAAAAAAAAAA [TGCATGCA_site650]” are within error of each other in “gcPBM binding intensity (ln)” value: 7.86 ± 0.59 for the first, 7.87 ± 0.81 for the second.

“AAATGACGAAATAAAATCATAAATTAAAATAAATAA [CACACA_negctrl_site655]” and “ATAGCATTTCACAAATGTACATAAAAAAATAAAAAT [XGTACX_site402]” are within error of each other in “gcPBM binding intensity (ln)” value: 7.33 ± 0.51 for the first, 8.09 ± 0.52 for the second.
